Reference: patent publication US20250382361A1, “AFFIBODIES, HYDROGELS CONTAINING AFFIBODIES, AND USES THEREOF” (University of Oregon, priority 2024, published 2025)

Experiments:
FGF-2 = molecular target: T1, FGF-2 (Homo sapiens, UniProt P09038); assay: Biolayer interferometry, soluble affibody vs bFGF-2; format: binding; conditions: 25 nM bFGF-2 on probe, 1000 nM affibody
T1 construct: biotin (label as supplied by the vendor); purchased Acro Biosystems
Source text: To further explore the affibody off-target binding observed on yeast surface display, biolayer interferometry (BLI) was used to measure off-target binding between soluble affibodies and proteins.

[1] = Far-UV circular dichroism thermal and pH stability; format: physicochemical
Experimental: Affibody folding stabilities were determined by measuring their far-ultraviolet (UV) circular dichroism (CD) spectra. To assess affibody stability across a range of physiologically relevant pH, affibodies were buffer exchanged into 10 mM Tris at pH 6, 7, 7.4, or 8 and diluted to 0.3 mg/mL. Affibody absorption spectra were then assessed as described above after 4 hours of incubation in the different pH media at room temperature.
To determine affibody melting temperatures, samples were prepared in 10 mM Tris pH 7.4 at 0.3 mg/mL. […] Far-UV spectra were taken before heating at 20° C., at 95° C., and after heating at 20° C. Melting temperatures were determined by fitting the change in 220 nm signal over the temperature range to a Boltzmann sigmoidal curve.
To assess affibody thermal stabilities, affibodies were buffer-exchanged into Tris 10 mM pH 7.4 and diluted to 0.3 mg/mL. To avoid potential freeze/thaw degradation after thermal degradation screening, affibodies were aliquoted and then immediately stored at −80° C. Affibody aliquots were removed from −80° C. and placed at either room temperature, 37° C., or 42° C. for a total of 1, 4, or 7 days. Far-UV spectra were measured as described above for all replicates of each temperature condition and plotted to determine the change in fraction folded compared to a baseline sample.
Affibody folding stabilities were determined by measuring their far-ultraviolet (UV) circular dichroism (CD) spectra.
Within extracellular spaces, bicarbonate and phosphate species within interstitial fluid are the main buffering components regulating pH. Tissue damage caused by chronic disease or injury can result in interstitial fluid pH ranging from 5-8. As such, affibody folding stabilities under variable pH were determined by incubation in 10 mM Tris at pH 6.0, 7.0, 7.4, or 8.0. Affibody folding stabilities under prolonged exposure to temperature treatment conditions were determined by incubation at room temperature (25° C.), physiological temperature (37° C.), and elevated temperature (42° C.) over 7 days (1, 4, or 7 days).

PDGF-BB = PDGF-BB (Homo sapiens, UniProt P01127); assay: Biolayer interferometry, affibody vs PDGF; format: binding; set-up: purchased PeproTech
Sequence of PDGF-BB (P01127 82-190 limits assumed): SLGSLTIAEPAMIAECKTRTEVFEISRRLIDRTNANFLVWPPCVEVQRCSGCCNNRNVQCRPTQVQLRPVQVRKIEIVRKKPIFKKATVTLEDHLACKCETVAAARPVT
Experimental: The binding interaction between PDGF and each soluble affibody was measured using a Gator® Plus biolayer interferometer (BLI; Gator Bio). Each soluble His-tagged affibody was diluted to 200 nM in PBS with 0.05% Tween20 (PBST; Thermo Fisher). Recombinant human PDGF-BB was buffer-exchanged into PBS and diluted to concentrations between 0-50 nM in PBST. Ni-NTA coated BLI probes (Gator Bio) were pre-soaked in 250 μL PBST for 45 minutes. The probes were then baselined with 200 μL PBST for 300 seconds and loaded with affibody for 180 seconds or until the wavelength shift plateaued. A new baseline was established using 200 μL PBST for 180 seconds, followed by 600 seconds of association with 200 μL of the various concentrations of rhPDGF-BB and dissociation for 600 seconds in 200 μL PBST.
(§1) Loaded probes were submerged in PBST until the baseline wavelength reading stabilized (approximately 300 seconds). 3.125-1000 nM of soluble VEGF-specific affibodies serially diluted in PBST were associated to the bVEGF-loaded probes for 600 seconds. Probes were then submerged into PBST or 600 seconds to measure dissociation of the affibodies. For measuring binding between PDGF and PDGF-specific affibodies, nitrilotriacetic acid (Ni-NTA) functionalized glass probes (GatorBio) were similarly pre-soaked in PBST, then loaded with 200 nM of PDGF-specific affibodies in PBST for 300 seconds until an approximate wavelength shift of 0.5 nm was achieved. Loaded probes were submerged in PBST until the baseline wavelength reading stabilized (approximately 300 seconds). 1.563-50 nM of soluble PDGF serially diluted in PBST were associated to the affibody-loaded probes for 600 seconds. Probes were then submerged into PBST for 600 seconds to measure dissociation of PDGF. Measurements were also taken of bVEGF loaded onto the streptavidin-functionalized probes without affibodies, affibodies loaded onto Ni-NTA probes without PDGF, and 0.0625-50 nM of PDGF without affibodies loaded onto Ni-NTA probes to subtract background signal from the data. Binding curves were normalized to data from probes loaded with only affibodies and only growth factors using GatorOne software 2.10 (GatorBio).
(§2) Biolayer interferometry (BLI) was also performed using streptavidin-functionalized glass probes to measure binding of affibodies to their off-target proteins.
(§3) Binding curves were fit to a global best-fit, non-linear regression model using GraphPad Prism 10.1.1 in which R^2>0.97 to determine the equilibrium dissociation constant (KD), on-rate constant (koff), and off-rate constant (kon) of each binding interaction.
Rosetta Rational Design Generates PDGF-specific Affibodies with Unique Binding Kinetics: Binding of PDGF to PDGF-specific affibodies was evaluated by loading nickel nitrilotriacetic acid (Ni-NTA)-coated BLI probes with 200 nM of each of the PDGF affibodies, followed by association of 1.563-50 nM of PDGF (FIG. 45G). […] Similar to the VEGF-specific affibody, the lower observed affinity between the original PDGF-specific affibody and PDGF on yeast surface display could be due to increased steric hindrance and decreased mobility of the PDGF-affibody binding interface compared to BLI.

VEGF = molecular target: T2, VEGF (Homo sapiens, UniProt P15692); assay: Biolayer interferometry, soluble affibody vs bVEGF; format: binding; conditions: 25 nM bVEGF on probe; 1000 nM affibody
T2 construct: biotin (label as supplied by the vendor); purchased Acro Biosystems
T2 sequence (P15692 1-191 isoform P15692-4): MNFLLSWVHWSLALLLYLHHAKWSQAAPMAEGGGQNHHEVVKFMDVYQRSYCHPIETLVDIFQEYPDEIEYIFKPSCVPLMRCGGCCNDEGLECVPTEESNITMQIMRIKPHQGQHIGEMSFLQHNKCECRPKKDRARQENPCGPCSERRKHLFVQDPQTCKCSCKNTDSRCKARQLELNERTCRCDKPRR
Experimental: as §1, §2, §3
The weaker affinity observed on yeast surface display was likely due to increased steric hindrance and decreased mobility of the VEGF-affibody binding interface when the affibody was fixed within the yeast surface display construct compared to being freely accessible in solution during BLI.

[2] = BLI, binding to PDGF, global fit

T1 sequence (P09038 134-288): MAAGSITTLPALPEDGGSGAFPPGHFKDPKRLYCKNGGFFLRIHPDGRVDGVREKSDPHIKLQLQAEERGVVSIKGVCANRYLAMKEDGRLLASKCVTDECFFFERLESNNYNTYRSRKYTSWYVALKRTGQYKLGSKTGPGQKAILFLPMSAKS

For “AEAKYAFELWEAQHEIQQLPNLRPDQIAAFAMALYDDPSQSSELLSEAKKLNDSQAPK [SEQ ID NO: 59]”, the “binding to bFGF-2 on BLI (specificity)” value (FGF-2) was “no binding”, the “binding to bFGF-2 on BLI (specificity)” value (FGF-2; listed as PDGF High Affibody) was “moderate off-target binding to FGF-2” and the “time of complete unfolding at 37° C.” value ([1]; 10 mM Tris pH 7.4) was ≤ 7 days. The “time of complete unfolding at 42° C.” value ([1]; 10 mM Tris pH 7.4) was ≤ 4 days, the “folding at pH 6.0, 7.0, 7.4, and 8.0” value ([1]; 10 mM Tris, far-UV CD spectra) was “identical spectra” and the “melting temperature (Tm)” value ([1]; CD at 220 nm, 20 to 95° C., 10 mM Tris pH 7.4) was 55.4 °C. The “folding on incubation at room temperature” value ([1]; Day 4 and Day 7 vs Day 1 and initial) was “modest degree of unfolding”, the “folding after heating to 95° C. and cooling to 20° C.” value ([1]; far-UV CD spectra) was “reversible folding” and the “higher equilibrium dissociation constant than PDGF Affibody-16” value (PDGF-BB; BLI) was 10 fold. The koff (PDGF-BB; [2]) was 0.01822 s⁻¹, the kon (PDGF-BB; [2]) was 236,620 M^−1 s^−1 and the Kd (PDGF-BB; Table 1, engineered PDGF affibodies, values match BLI) was 77.3 nM. The “binding to bVEGF on BLI (specificity)” value (VEGF) was “no binding”.
